Measured values reported in PubChem BioAssay AID1963576 (National Center for Advancing Translational Sciences (NCATS), 2024).
The campaign covered roughly 46,000 compounds. About 60 (0.1%) were called active. Roughly 3% stayed inconclusive and do not appear here. Calls come from the whole dose curve; as a rule, active = well fitted inhibition curve with a large enough effect; inconclusive = small, poorly fitted or top-dose-only effect; inactive = no such curve, though single readings can be large or run the other way. The list shows a part of the results.

assay: Primary qHTS assay for Inhibitors of ovarian cancer metastasis using an organotypic tumor microenvironment (TME) model.; note: nearly all actives have a fitted effect of over 65% in size;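 for activity change, negative = inhibition: plate controls were DMSO wells for no effect and tomatine positive control wells for full effect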; conditions: SKOV3ip1-GFP adhesion/invasion on 3D omental model, fluorescence; series mostly up to 45.8 µM; activity change, negative = inhibition: at the top concentration
Outline: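 A 3D layer of primary human omental fibroblasts, mesothelial cells, fibronectin and collagen I, grown 48 hr, received SKOV3ip1-GFP cells in serum-free medium plus compounds at 0.36-46 umol/L. After 2 hr RT and 16 hr 37 C, fixed adherent GFP cells were counted; normalized to DMSO and tomatine.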

Activity change, negative = inhibition, inactive:
CCN1CCCC1CNC(=O)c1cc(S(=O)(=O)CC)c(N)cc1OC (stereo not drawn) -6.27%
Cc1ccc(-n2nnnc2CNC(=O)c2ccccc2F)cc1C 2.5%
Cc1ccc(NC(c2nnc(-c3ccccc3)o2)c2ccccc2F)c([N+](=O)[O-])c1 (stereo not drawn) -3.38%
O=C(NCc1ccccc1Cl)c1ccc(CSCc2cccc(F)c2)o1 -6.81%
Nc1nc(N)nc(-c2cc(Cl)ccc2Cl)n1 -14.6%
O=c1[nH]c(-c2ccc(C(F)(F)F)cc2)nc2c1CSCC2 -15.6%
CCc1cccc(NC(=O)Cn2cc(C(=O)c3ccncc3)c(=O)c3cc(C)c(C)cc32)c1 -0.146%
O=C(NCc1ccc(Cl)cc1)c1ccc2c(c1)NC(=O)C(CS(=O)(=O)Cc1ccccc1Cl)N2 (stereo not drawn) -8.99%
O=C(Nc1c(C(=O)Nc2cccc(C(F)(F)F)c2)oc2ccccc12)c1cc(=O)c2ccccc2o1 3.35%
O=C(O)CCn1cnc2onc(-c3ccccc3Cl)c2c1=O -8.83%
CCC1CCCCN1C(=O)Cn1c(=O)n(CCCCCC(=O)NCc2ccc(F)cc2)c(=O)c2sccc21 (stereo not drawn) 0.613%
Cc1cccc(C(=O)OCc2cc(=O)n3nc(C4CCCCC4)sc3n2)c1 -1.07%
CC(C)Sc1ncc(Cl)c(C(=O)N(Cc2ccc(F)cc2)C2CCS(=O)(=O)C2)n1 (stereo not drawn) -3.45%
O=C(Cc1cccs1)NC1CC(=O)N(c2ccc(Cl)cc2)C1 (stereo not drawn) 0.0491%
CCC1=C[C@@H]2CN(C1)Cc1c([nH]c3ccccc13)[C@@](C(=O)OC)(c1cc3c(cc1OC)N(C)[C@@H]1[C@@](O)(C(=O)OC)[C@H](OC(C)=O)[C@]4(CC)C=CCN5CC[C@]31[C@@H]54)C2 9.28%
Cc1ccc(NC(=O)CN2C(=O)C(C)(C)c3ccccc32)cc1 -16.1%
O=C(NCCC1=CCCCC1)c1ccc2c(c1)N(Cc1ccccc1F)C(=O)c1ccccc1S2(=O)=O -1.06%
CCc1cccc(N2C(=O)CS(=O)(=O)C23C(=O)N(Cc2ccc(F)cc2)c2ccc(C)cc23)c1 (stereo not drawn) 14.7%
COc1ccc(N2Cc3cccc(C(=O)Nc4ccc(C)c(C)c4)c3C2=O)cc1 -7.51%
O=C(Nc1cccc(Cl)c1)Nc1ncc(CCNc2ncnc3ccsc23)s1 -5.14%
CCOC(=O)c1cc(-c2ccccc2)n(-c2cccc(C(=O)N(CC)c3ccccc3)c2)c1C -9.87%
Cc1ccc(S(=O)(=O)c2nc(-c3ccco3)oc2SCc2ccccc2Cl)cc1 -0.925%
CCN1c2cc(C)ccc2-n2cccc2C12CCN(C(=O)Nc1cc(OC)c(OC)c(OC)c1)CC2 -1.12%
Cc1cc(C)cc(-n2ccn3c(CC(C)(C)CC(=O)O)nnc3c2=O)c1 -3.08%
COc1cccc(NC(=O)C2CCCN2S(=O)(=O)c2ccc3c(c2)C(C)(C)C(=O)N3C)c1 (stereo not drawn) 6.63%
Cc1ccc2oc3c(c(=O)c2c1)C(c1cccc(O)c1)N(Cc1ccccc1Cl)C3=O (stereo not drawn) -14.1%
COc1ccc(N2CCN(C(=O)NCc3noc4ccccc34)CC2)cc1 -3.31%
Cc1c2cnn(-c3ccccc3)c(=O)c2c(C)n1C(C)C(=O)Nc1ccc(Br)cc1F (stereo not drawn) 9.02%
CSc1ccc(CCNC(=O)CCc2c(C)nc3cc(-c4ccccc4)nn3c2C)cc1 -4.31%
CCCOc1ccc(CN(C(=O)c2nc(SC(C)C)ncc2Cl)C2CCS(=O)(=O)C2)cc1 (stereo not drawn) 0.94%
COc1cc2[nH]c(=O)n(CCCCCC(=O)NCCc3ccccc3)c(=O)c2cc1OC 42.2%
CCNC(=O)c1ccc2nc(Cc3ccccc3)oc2c1 2.4%
O=C(Nc1c(C(=O)Nc2cccc(F)c2)oc2ccccc12)c1cc2ccccc2o1 35.6%
Fc1ccc(-c2ccc(CNCCSc3nnnn3-c3ccccc3)o2)cc1Cl -24.2%
CCOc1nc(-c2ccc(C)cc2)ccc1-c1noc(-c2ccccc2F)n1 -0.748%
O=C(Nc1nnc(S(=O)(=O)N2CCc3ccccc32)s1)c1ccccc1 7.39%
COc1cccc(C2c3c(-c4ccccc4O)n[nH]c3C(=O)N2CCc2ccc(OC)c(OC)c2)c1 (stereo not drawn) -3.54%
CC(C)COc1ccc(C(=O)N2CCN(CCc3ccccn3)CC2)cc1 9.57%
CCOc1ccc(CCNC(=O)Cn2ncn3c(cc4ccccc43)c2=O)cc1OCC -6.82%
CCn1c(C(=O)Nc2cc(Cl)ccc2C)cc2sc(Cl)cc21 16.3%
COc1ccc(CCNC(=O)CCc2c(C)c3cc4c(C)c(C)oc4cc3oc2=O)cc1 -21%
COc1ccc(NC(=O)CC(C)n2nc(C)cc2C)cc1Cl (stereo not drawn) 7.28%
CCN(CC)S(=O)(=O)c1ccc2oc(C(=O)Nc3ccc(Br)cc3F)c(C)c2c1 2.38%
COc1ccc(CNC(=O)CN2C(=O)CCCc3ccccc32)cc1 -1.24%
Cc1ccc(-c2nc3ccc(Cl)cn3c2Nc2ccc3c(c2)OCCO3)s1 -3.82%
Cc1ccc(Sc2c(C(=O)NCc3ccccc3C)[nH]c3ccccc23)cc1 -7.31%
CCc1ccc(-c2nc(-c3cc4ccccc4oc3=O)sc2C)cc1 -9.25%
Nc1ncnc2c1c(-c1cccc(OCc3ccccc3)c1)cn2C1CC(CN2CCCC2)C1 (stereo not drawn) -18.1%
Cc1cccc(-c2nc(SCC(=O)NCc3ccco3)c3c(=O)n(C)c(=O)n(C)c3n2)c1 2.55%
Cc1ccc(Cn2c(CNS(=O)(=O)c3ccc(Cl)s3)nc3cccnc32)cc1 7.54%
CCN(CCCNC(=O)c1nn(-c2ccc(OC)c(Cl)c2)c(=O)c2c1c1ccccc1n2C)c1cccc(C)c1 -7.62%
COc1ccccc1N1CCN(c2nc3c(S(=O)(=O)c4ccc(C)c(C)c4)nnn3c3ccc(Cl)cc23)CC1 0.625%
CCOC(=O)C(=O)Nc1c(C(=O)Nc2cccc(F)c2)oc2ccccc12 50.3%
CN(C)c1ccc(C2Nc3ccc4ccccc4c3C3=C2C(=O)CC(C)(C)C3)cc1Br (stereo not drawn) 4.97%
COc1ccc(CNC(=O)c2cc(-c3ccc(C)c(C)c3)n[nH]2)cc1 -0.209%
COc1ccc(C(=O)Nc2c(C(=O)c3ccccc3)oc3ccccc23)cc1 44.1%
O=C(Nc1cc(Cl)cc(Cl)c1)c1cc(S(=O)(=O)N2CCc3ccccc3C2)ccc1F 2.78%
CCOC(=O)c1cccc(NC(=O)C2CCCN(c3nnc(C)c4c(C)n(-c5ccccc5)nc34)C2)c1 (stereo not drawn) 15.7%
COc1ccc(NC(=O)c2cc3cc(C)ccc3n2C)cc1 1.93%
Cn1c(=O)c(=O)n(C)c2cc(N3CCOCC3)c(NS(=O)(=O)c3ccc(F)c(Cl)c3)cc21 6.69%
Cc1ccc(-c2nnc3ccccc3c2C(=O)Nc2cccc(Cl)c2)cc1 0.327%
Cc1ccc(Cl)cc1NC(=O)c1ccc2snnc2c1 -0.478%
COc1ccc(NC(=O)c2ccc3c(c2)nnn3C2CCCC2)cc1Cl -0.71%
COc1ccc(C(=O)Nc2nnc(S(=O)(=O)N(CC(C)C)c3ccccc3)s2)cc1 -1.17%
CNS(=O)(=O)c1cn(CC(=O)Nc2ccc(C)c(N(C)C)c2)cc1S(=O)(=O)NC 12.3%
CC1=C(C(N)=O)C(c2ccc(F)cc2)n2nc(-c3ccc(N(C)C)cc3)nc2N1 (stereo not drawn) -15.1%
CCN(C(=O)c1cc(S(=O)(=O)N2CCc3ccccc32)cn1C)c1cccc(C)c1 9.68%
Cc1ccc(Cl)cc1N1CCN(C(=O)c2cccn2-c2nnc(N3CCCC3)s2)CC1 5.87%
Cc1ccc(-c2nn(CC(=O)NC3CCCCC3)c3c2cnc2ccccc23)cc1 3.13%
Cc1ccc2c(=O)c(C(=O)c3ccc(F)cc3)cn(CC(=O)NCc3ccccc3Cl)c2n1 0.406%
CCCCCc1ccc(-c2ccc(C(=O)Oc3ccc(C(=O)OC)cc3)cc2)nc1 5.04%
COc1ccccc1CNC(=O)c1ccc(CSc2nc3ccncc3n2Cc2ccccc2C)cc1 -4.11%

outcome, inactive:
Cc1cccn2c(=O)cc(COc3ccc(NC(=O)c4cccc(F)c4)cc3)nc12
Cc1ccc(-c2nn3c(-c4ccccc4)nnc3c3ccccc23)cc1
CC1=C(C(=O)Nc2ccc(C)cc2)C(c2ccc(Cl)cc2)n2nnnc2N1 (stereo not drawn)
Cc1cc(C)cc(NC(=O)C(=O)NC(C)c2ccccc2)c1 (stereo not drawn)
CCOC(=O)c1c(NC(=O)c2ccc(S(=O)(=O)N3CCCC(C)C3)cc2)sc2c1CCN(C(C)C)C2 (stereo not drawn)
COc1ccc(N2CC(NC(=O)COc3ccccc3C)CC2=O)cc1OC (stereo not drawn)
Cc1ccc(-n2c(SCC(=O)Nc3cccc(F)c3)nc3c(oc4ccccc43)c2=O)cc1C
N#Cc1ccccc1Cn1c(=O)n(Cc2ccc(C(=O)NC3CCN(Cc4ccccc4)CC3)cc2)c(=O)c2ccccc21
O=C(CSc1ncc(CO)n1Cc1ccccc1)Nc1ccc(C(F)(F)F)cc1
CCOC(=O)c1c(NC(=O)COc2cccc(C(F)(F)F)c2)sc2c1CCCCC2
COc1cc(NC(=O)c2cnc3c(-c4ccc(F)cc4)c(C)nn3c2C)cc(OC)c1
Cc1cc2[nH]c(=O)c(=O)[nH]c2cc1S(=O)(=O)N1CCN(c2cccc(C)c2C)CC1
CCOC(=O)c1ccc(NS(=O)(=O)c2cc(Br)cc3c2N(C(C)=O)C(C)C3)cc1 (stereo not drawn)
Cc1cccc(-n2ccnc2SCC(=O)Nc2nc3ccccc3s2)c1
CCc1c(C)sc(NC(=O)C2c3ccccc3Oc3ccccc32)c1C(=O)OC(C)C
CCc1ccccc1Nc1cc(C(=O)NC2CCC(C)CC2)c2ccccc2n1 (stereo not drawn)
COc1ccc(OC)c(C2C(C(=O)Nc3ccccc3OC)=C(C)Nc3c(C(=O)Nc4ccc(F)cc4)cnn32)c1 (stereo not drawn)
CC(C)(C)OC(=O)N1CCC(c2c(C(=O)NCc3ccc4c(c3)OCO4)cnn2-c2ccccc2Cl)CC1
COc1cc(NC(=O)NCCn2nnc3cc(S(=O)(=O)N(C)C)ccc32)cc(OC)c1
Cc1ccc(Cn2c(C(=O)O)c(CNCc3cccs3)c3ccc(C)cc32)cc1
Cc1ccc(S(=O)(=O)C2(C(=O)Nc3ccc(C(C)C)cc3)CC2)cc1
